No end group written: not given here.

As a reminder, the MIC is the smallest concentration in the dilution series that meets the test's criterion for growth inhibition. A high value points to a less susceptible organism.

The assay concerns M. smegmatis. Conditions: MB7H9 broth with 10% OADC, 48 h, 37 °C.

Substance KRAKKFFKKLK-NH2 [ATRA-1A] showed an MIC of 22.01 µM.

Source of the values: publication PMC4790291, “Short, Synthetic Cationic Peptides Have Antibacterial Activity against Mycobacterium smegmatis by Forming Pores in Membrane and Synergizing with Antibiotics” (Antibiotics, 2015).
